According to the RNAGym collection of RNA variant scans (doi:10.7554/elife.90254):
Read counts are not given, so values of variants with three or more changes are uncertain.

B1: LINE1-mini (parent)
chain: GGCAGAGCUCAACACAGCGUGGCAAAGUGGCUGUGGCUAGACUGCC

Variants of: B1
Experiment: self-cleavage, relative activity (ratio to wild type); higher = more cleavage; in vitro, sequencing; the parent is a self-cleaving ribozyme

Variant	self-cleavage
G2A C10U A12U A14C G21A U32A A41G	0.07
G2A A25G G30U U43C	0.04
G2C A6C U20C G29U G30A	0.04
G2A C10A G17C U20A G21U G33A	0.11
G2A A4U A6U C31A G33U	0.07
G2C A11C G19A G33U C42G	0
G2C A11C C18A G30U G36C	0.04
G2A A4G G19A G35U	0.92
G2A A6U U20C G27U G40A	0.1
G2A C15G G22C U43A C45G	0.02
G2A U9A C18U C42G	0.19
G2A G7C A26G	0.93
G2A U9G A14U C15G U38G C45A	0.12
G2A G19U A39C	0.21
G2A G29U G35U	0.18
G2C A6G C13U G29A	0.13
G2A U20C G22C A24C	0.09
G2A G5C U34G G40U	0.06
G2C A6C G17U U34G	0.04
G2A C23U C37A	0.18
G2A A16G G40C C46A	0.05

Variant	self-cleavage
G2A C10U U38A	0.08
G2A C8U G35C	0.17
G2A G22A G36U	0.06
G2A G29U G35A C42A C45G	0.13
G2A G7C A14G G27U	0.2
G2A C10A G22U	0.03
G2A G7C G29A	0.25
G2A A12C A14U U34G U43C	0.03
G2A G30U G36C C46A	0.02
G2A A11C G30A G35A C42G	0.01
G2C A6C A11C A24C	0.05
G2C A6G A25G A26U U34A G35U	0.07
G2A C23A A26G A39U U43C	0.12
G2A G7C A16G G40A	0.04
G2A G21U A25U C31A C42A	0.12
G2C A4U U20G	0.03
G2A C18A A26G C45G	0.14
G2A C13G A26C G30U	0.05
G2A U9A A24U	0.54
G2A C3A U9G U28C U32C G35C	0.36
G2A U20C G22C A41G	0.06

Variant	self-cleavage
G2A C10U G17C	0.2
G2A G5A C42G	0.07
G2C A4C G17U	0.51
G2A C13A G29U G36A G44C	2.26
G2A G19A G44U	1.6
G2A C3U U9A C18U G19C	0.11
G2A G35U C42U	0.07
G2A C23A C37A C42A	0.13
G2A G7A A14G C18A U38G	0.13
G2A G5U A11G C18G G33U G35A	0
G2A A4U G27C G29U G40A C45G	0.15
G2C A6U C18U C42A	0.04
G2A C10A C18G G36U	0.04
G2C A11G U20A	0.01
G2A C13U G30C G44A	0.1
G2A A26G C37G	0.11
G2A C8U A14G A25C G36C	0.13
G2A A14G G19C G21A C37G	0.03
G2A G22A G33U	0
G2A G17U G40C	0.24
G2A G17U G40U	0.11

Variant	self-cleavage
G2A G17U G44U	0.16
G2A C3U G19A G30A	0.73
G2A G29U G40C C45A	0.1
G2A C3U U9G A14C	0.11
G2A G5U G21U	0.1
G2A C18A C31U	0.02
G2C A6U C10A A25C C42U G44A C45U	0.01
G2A C37G A41C G44U C45G	0.06
G2A C8U G22U C46A	0.18
G2A C13A U38A	0.42
G2A A16U G35C G40U	0.13
G2A A26U G30U	0.4
G2C A4G U9C G21U C31A G35A	0.03
G2A C8G A25G C46U	0.21
G2A G5C U34G	0.03
G2A C10U G30C U38C G40C U43A	0.04
G2A A4G U32G	0.23
G2C A4C G7C C8U G30U	0.18
G2A C15A G30A A41G C45G	0.26
G2A A25G A26G G35C	0.07
